Experimental data published in PubChem BioAssay AID2202238 (Ras Initiative Chemistry Research Team, Frederick National …, 2025).
The list shows a part of the results. These are further read-outs of the screen, such as a control signal, another cell line or another target. No call is given for them.

Target: GTPase KRas (Homo sapiens) (UniProt P01116)
Assay: Fragment capture on engineered cysteines, share of protein labelled (AID 2202238)
Set-up: protein at 5 µM with 500 µM competing thiol for 1.5 h
Settings: KRAS G12D cysteine mutants, disulfide tethering, MALDI-TOF labeling, stronger effect = higher value, fragment at 500 µM
[1] = measured here: G60C mutant labeling
[2] = measured here: G75C mutant labeling
[3] = measured here: H94C mutant labeling
[4] = measured here: I36C mutant labeling
[5] = measured here: L120C mutant labeling
[6] = measured here: M67C mutant labeling
[7] = measured here: M72C mutant labeling
[8] = measured here: N26C mutant labeling
[9] = measured here: N86C mutant labeling
[10] = measured here: P121C mutant labeling
[11] = measured here: S122C mutant labeling
[12] = measured here: S136C mutant labeling

Sequence of UniProt P01116 (P01116 whole entry, looked up, the tested form may be a part): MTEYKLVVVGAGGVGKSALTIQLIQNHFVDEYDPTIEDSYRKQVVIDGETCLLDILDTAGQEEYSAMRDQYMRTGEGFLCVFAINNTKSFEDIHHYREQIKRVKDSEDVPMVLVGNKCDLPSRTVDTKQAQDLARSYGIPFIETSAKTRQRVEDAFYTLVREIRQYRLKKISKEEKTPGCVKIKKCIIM

Row | SMILES | percent labeling [1] [%] | percent labeling [2] [%] | percent labeling [3] [%] | percent labeling [4] [%] | percent labeling [5] [%] | percent labeling [6] [%] | percent labeling [7] [%] | percent labeling [8] [%] | percent labeling [9] [%] | percent labeling [10] [%] | percent labeling [11] [%] | percent labeling [12] [%]
1 | O=C(NCCS)c1ccc2[nH]cnc2n1 | 44 | 33.4 | 45.3 | 31.9 | 51 | 38.2 | 62.9 | 48.9 | 39.6 | 34.3 | 34.8 | 50.7
2 | COc1cc(NC(=O)CCS)c(OC)cc1CCNC(C)=O | – | 12.3 | 45.8 | 30 | 32.6 | 33.2 | 26.3 | – | 18.2 | 27.5 | 31.3 | 70.4
3 | O=C(CCc1ccccc1N1CCOCC1)NCCS | 43.6 | 13.1 | 34.3 | 23.8 | 29.7 | 37.5 | 23.7 | 33.6 | 22.7 | 30.3 | 26 | 48.2
4 | N#Cc1ccc(N2CCC(C(=O)NCCS)CC2)c(F)c1 | 17.4 | 4.7 | 12.8 | 14.5 | 15.7 | 13.4 | 19.7 | 29.9 | 4.4 | 12.3 | 8 | 14.1
5 | O=C(CCS)NC1CCN(C2CCOCC2)CC1 | – | 12.4 | 29.8 | 53.6 | 24.3 | 43.2 | 19 | – | 25.8 | 31.9 | 28.7 | 52.7
6 | O=C(Cc1cnccc1C(F)(F)F)NCCS | 39.3 | 15.5 | 34.1 | 28.7 | 42.1 | 32.3 | 26.5 | 35.7 | 36.8 | 33 | 34.6 | 41.2
7 | Cc1cccc(CC(=O)NCCS)c1Br | 57.5 | 22.5 | 28.7 | 20.6 | 41 | 27.6 | 49.9 | 36 | 26.3 | 24.9 | 20.9 | 46.3
8 | O=C(CCS)NC1CC(O)(C(F)(F)F)C1 (stereo unspecified) | – | 10 | 27.7 | 31.4 | 20.8 | 27 | 15.7 | – | 13.9 | 33.7 | 36 | 40.2
9 | O=C(CCS)NCCCc1cn[nH]c1C(F)(F)F | – | 17.6 | 38.8 | 43.1 | 39.2 | 48 | 47.5 | – | 33.9 | 36.9 | 41.4 | 50.7
10 | O=C(CCS)NC1CCc2ccccc2-n2ccnc21 (stereo unspecified) | – | 20.6 | 43 | 52.6 | 52.3 | 46.9 | 39.1 | – | 32.9 | 39.6 | 34.7 | 85.8
11 | COc1ccc2c(c1)CCN(C(=O)CCS)C2 | – | 17.2 | 20.1 | 22.5 | 17.5 | 22.5 | 42.6 | – | 21 | 22.6 | 22.9 | 41.1
12 | O=C(CCS)NC1CC(N2CCOCC2)C1 (stereo unspecified) | – | 16 | 24 | 35.3 | 24 | 28.7 | 11.8 | – | 18.1 | 32.2 | 31.3 | 45.6
13 | CCCC(NC(=O)CCS)c1ncc(-c2ccc3c(c2)OCO3)[nH]1 (stereo unspecified) | – | 11.2 | 33.1 | 24 | 13.5 | 23.2 | 23.1 | – | 14.6 | 19.2 | 8.3 | 27.5
14 | COc1cccc(N2CCN(C(=O)CCS)CC2)c1 | – | 8.7 | 25.7 | 24.4 | 23.1 | 25.4 | 20.8 | – | 6.8 | 22.3 | 26.4 | 41.8
15 | Cc1nn(COc2ccc(F)cc2)c(C)c1NC(=O)CCS | – | 13.8 | 40.1 | 42.8 | 23.5 | 56.7 | 27.8 | – | 32.8 | 30.8 | 27.6 | 53
16 | CN1C(=O)COc2ccc(C(=O)NCCS)cc21 | 44.9 | 27.8 | 45.5 | 30.2 | 41.8 | 35 | 59.9 | 53.7 | 23.3 | 31.9 | 30.4 | 49.9
17 | CC(=O)N(Cc1ccsc1)C1CC12CCN(C(=O)CCS)CC2 (stereo unspecified) | – | 15.1 | 33.2 | 32.3 | 29.7 | 47 | 26.6 | – | 21.2 | 30.2 | 28.9 | 65.7
18 | O=C(NCCS)c1cc2ccccc2[nH]c1=O | 19.3 | 12.7 | 16.9 | 19.9 | 15.5 | 14.3 | 54.2 | 25.6 | 12.2 | 20.9 | 8.4 | 33.1
19 | O=C(CCS)N1CCN(c2ccncc2F)CC1 | – | 17 | 35.7 | 45.3 | 32.8 | 45.6 | 30.1 | – | 21.9 | 31.4 | 30 | 57.1
20 | COc1sccc1C(=O)NCCS | 62.6 | 38.7 | 60.2 | 31.4 | 47.7 | 42.9 | 68.7 | 44.6 | 42 | 37.2 | 40.2 | 57.1
21 | Cc1cn(-c2ccccc2)nc1C(=O)NCCS | 14.5 | 11.8 | 10.6 | 9 | 12.6 | 10.1 | 34.6 | 31.3 | 7.5 | 12.1 | 7 | 15.5
22 | CC(C)C(C(=O)NCCS)n1cnc2cc(F)c(F)cc21 (stereo unspecified) | 40.1 | 6.4 | 22.2 | 26.7 | 17.5 | 33.3 | 21.3 | 33.8 | 13.7 | 20.7 | 19.7 | 29.2
23 | O=C(NCCS)C(F)(F)C1(O)CCCCCC1 | 49.1 | 19.6 | 35 | 21.6 | 41.9 | 31.6 | 28.5 | 38.6 | 31 | 32.2 | 34 | 45.3
24 | Cc1nc(C2CCN(C(=O)CCS)CC2)c2n1CCN(C)C2 | – | 9.5 | 33.1 | 46.7 | 29.4 | 50.3 | 15.9 | – | 29.3 | 26 | 25.4 | 51.1

Row | SMILES | percent labeling [1] [%] | percent labeling [2] [%] | percent labeling [3] [%] | percent labeling [4] [%] | percent labeling [5] [%] | percent labeling [6] [%] | percent labeling [7] [%] | percent labeling [8] [%] | percent labeling [9] [%] | percent labeling [10] [%] | percent labeling [11] [%] | percent labeling [12] [%]
25 | O=C(Nc1ccccc1O)C1CCN(C(=O)CCS)CC1 | – | 12.1 | 39.1 | 38.3 | 40.5 | 75.2 | 32.3 | – | 43.8 | 38.1 | 34.4 | 56.1
26 | CC(C)(C)C(NC(=O)CCS)c1nc(-c2ncn[nH]2)no1 (stereo unspecified) | – | 11.2 | 34.4 | 37 | 35.7 | 34.6 | 27.3 | – | 33.7 | 33.1 | 36.7 | 47.1
27 | COc1ccc(C(F)(F)C(=O)NCCS)cc1 | 42.3 | 18.2 | 19 | 16.6 | 25.5 | 20.2 | 42.6 | 29.3 | 15.6 | 17.9 | 19.2 | 20.2
28 | O=C(NCCS)C(O)Cc1ccccc1Cl (stereo unspecified) | 59.4 | 26.7 | 39.7 | 25.7 | 50.1 | 37.9 | 60.3 | 36.8 | 24.2 | 42.8 | 27.6 | 48
29 | Cc1cc(NC(=O)CCS)nn1Cn1cc(Cl)cn1 | – | 18.8 | 38.3 | 41 | 35 | 34 | 39.9 | – | 34.8 | 26.9 | 25.6 | 54.6
30 | O=C(NCCS)c1ccc(C(F)(F)F)cc1N1CCCC1 | 22.9 | 6.1 | 11.7 | 8.2 | 9.7 | 4.4 | 4.8 | 10.1 | 5 | 10.3 | 5.6 | 7.7
31 | O=C(CCS)Nc1cccc(-c2noc(C(F)F)n2)c1 | – | 9.2 | 19.7 | 25 | 19.8 | 15.3 | 36.1 | – | 16.2 | 14.4 | 13.7 | 26.5
32 | CC1CCc2ccccc2N1CCC(=O)NCCS (stereo unspecified) | 35.8 | 10 | 20.9 | 17.9 | 21.3 | 33 | 30.6 | 32.4 | 6.5 | 23.2 | 18.2 | 31.9
33 | Cc1nc2cc(C(=O)NCCS)ccc2c(=O)[nH]1 | 25.6 | 16.8 | 23.5 | 13.1 | 25.3 | 28.7 | 39.3 | 51 | 25.1 | 9.3 | 19.2 | 32.9
34 | CN1C(=O)CCc2ccc(C(=O)NCCS)cc21 | 44.1 | 24.9 | 41.2 | 32.7 | 38 | 40.8 | 64.4 | 56.1 | 27.1 | 33.1 | 31.8 | 52.2
35 | CN(C)CCN(Cc1cccs1)C(=O)CCS | – | 22.8 | 51 | 51.2 | 34.6 | 55.5 | 53.2 | – | 46.3 | 40.2 | 40.5 | 66
36 | CC1CCN(c2ccc(C(=O)NCCS)cc2)C1 (stereo unspecified) | 0 | 4.3 | 5.6 | 0 | 0 | 5.2 | 41.3 | 22.7 | 3.7 | 0 | 4.6 | 0
37 | O=C(NCCS)[C@@H]1CCCN1C(=O)Nc1ccc2c(c1)OCCO2 | 24.3 | 10.8 | 27.2 | 15.4 | 37 | 18.5 | 16.6 | 31.1 | 17.6 | 23.2 | 19.7 | 29.3
38 | CCNC(=O)COc1cccc(CNC(=O)CCS)c1 | – | 9.2 | 32.3 | 36.8 | 28.6 | 31.9 | 22.1 | – | 34.2 | 30 | 34.2 | 45.6
39 | O=C(NCCS)C1CCN(Cc2coc(-c3ccccc3)n2)CC1 | 44 | 21.4 | 40.2 | 40.2 | 27.2 | 62.8 | 19.5 | 44.7 | 24.6 | 26.2 | 23.5 | 42.5
40 | COc1ccc2cccc(CC(=O)NCCS)c2c1 | 46 | 17.3 | 21.1 | 22.4 | 39.6 | 19.3 | 42.1 | 26 | 14.1 | 19.9 | 16.4 | 31.7
41 | O=C(CCS)N1Cc2cccn2C2(CCOCC2)C1 | – | 3.7 | 10.7 | 17.2 | 11.4 | 2.2 | 4.9 | – | 13.5 | 15.4 | 14.7 | 12.8
42 | O=C(NCCS)C1CCN(C(=O)c2cccc3ccccc23)CC1 | 36.8 | 16.3 | 30.5 | 21.6 | 20.4 | 81.4 | 30.6 | 41.5 | 15.4 | 21.2 | 17.8 | 45.8
43 | CN1C(=O)CO[C@@H](C(=O)NCCS)[C@H]1c1cnn(C)c1 | 17.3 | 7.4 | 27.7 | 26.1 | 21.7 | 27.8 | 11.1 | 27.5 | 19.8 | 34.1 | 28.9 | 35.3
44 | O=C(CCS)Nc1cc2ccc(Br)cn2n1 | – | 5.2 | 14 | 34.2 | 16 | 11.8 | 39.3 | – | 18.8 | 13.4 | 10.5 | 24.6
45 | O=C(CCS)Nc1ccc(Cl)cc1-c1ccccc1 | – | 11.8 | 23.2 | 15.8 | 23.4 | 19.1 | 33.4 | – | 18 | 19.2 | 12.6 | 22.9
46 | Cn1nc(-c2ccco2)cc1NC(=O)CCS | – | 14 | 25.6 | 33 | 32.7 | 23.3 | 44.7 | – | 32.5 | 36.9 | 29.7 | 48.4
47 | O=C(CCS)N1CC(c2n[nH]c3c2COCC3)C1 | – | 11.2 | 20.7 | 25.7 | 23.4 | 44.2 | 16.1 | – | 12.3 | 26.8 | 29.9 | 47.1
